Laboratory results taken from paper PMC9481563, “Structural insights into the pSer/pThr dependent regulation of the SHP2 tyrosine phosphatase in insulin and CD28 signaling” (Nature Communications, 2022).

How the values were obtained:
[1] = tested on: SHP2 WT catalytic domain 219–528; assay: DIFMUP Michaelis-Menten kinetics, SHP2 WT catalytic domain; assay type: biochemical, human; conditions: for AVERAGE rate: SHP2 WT catalytic domain
From the text: (§1) DIFMUP concentration (μM)
(§2) Source data are provided as a
(§3) lowest calibration points).
(§4) provided as a Source Data file.

[2] = tested on: active SHP2 crystallization construct (Δ(219-245)-Δ(315-323)+GSSG); assay: DIFMUP Michaelis-Menten kinetics, active SHP2 crystallization construct; assay type: biochemical, human; conditions: for Slope (DIFMUP kinetics), AVERAGE: SHP2 crystallization construct (active version), slope of fluorescence over 60 points
From the text: as §1, §2, §3, §4

E. coli lysates = assay: Background phosphatase activity of E. coli lysates on DIFMUP; assay type: biochemical; conditions: n = 3 technical repeats
[3] = tested on: active SHP2 loop mutant (K364E); conditions: 2.5 nM enzyme, n = 3 technical repeats
[4] = tested on: active SHP2 loop inversion (R362E); conditions: 2.5 nM enzyme, n = 3 technical repeats
[5] = tested on: H426A catalytic mutant SHP2; conditions: for AVERAGE rate: SHP2 H426A catalytic mutant
[6] = tested on: D425A catalytic mutant SHP2; conditions: for AVERAGE rate: SHP2 D425A catalytic mutant (5-fold enzyme)
SHP2 H426A mut = conditions: different protocol (1 min read intervals, slope fitting to 3 initial points), BioTek plate reader; n = 3
SHP2 D425A mut = conditions: different protocol (1 min read intervals, slope fitting to 3 initial points), BioTek plate reader; n = 3
Wild-type SHP2 = assay: Additional DIFMUP kinetics (BioTek protocol), wild-type SHP2; conditions: different protocol (1 min read intervals, slope fitting to 3 initial points), BioTek plate reader; n = 3 technical replicates
[7] = 2.5 nM enzyme, pH 7.4, n = 3 technical repeats, fitted to 60 points [10 min]
[8] = 2.5 nM enzyme, n = 3 technical repeats
[9] = 2.5 nM enzyme, n = 3 technical repeats, fitted to 60 points [10 min]

SMILES: Cc1cc(=O)oc2c(F)c(OP(=O)(O)O)c(F)cc12 [DIFMUP]
- Km [1, 7]: 85.8 µM
- kcat [1, 7]: 7.76 ± 0.61 s⁻¹ and 7.76 s⁻¹
- Vmax [1, 8]: 14.47 ± 1.15 AU/tick
- AVERAGE rate ([1]; DIFMUP 13.169 uM): 1.988 arb. un.
- AVERAGE rate ([1]; DIFMUP 19.753 uM): 2.703 arb. un.
- AVERAGE rate ([1]; DIFMUP 29.630 uM): 3.612 arb. un.
- AVERAGE rate ([1]; DIFMUP 44.444 uM): 4.820 arb. un.
- AVERAGE rate ([1]; DIFMUP 66.667 uM): 5.809 arb. un.
- AVERAGE rate ([1]; DIFMUP 100.000 uM): 8.098 arb. un.
- Activity @ 100 uM DIFMUP concentration ([1]; WT SHP2 50nM (diluted over 1/1000 from protein stock), Supplementary figure 67, n = 3): 8.10 units / 10 sec
- Vmax [2, 8]: 15.53 ± 1.02 AU/tick
- Km [2, 9]: 61.6 µM
- kcat [2, 9]: 8.33 ± 0.55 s⁻¹ and 8.33 s⁻¹
- Slope (DIFMUP kinetics), AVERAGE ([2]; DIFMUP 13.169 uM, average of wells #1-#3 (n = 3)): 2.782
- Slope (DIFMUP kinetics) ([2]; DIFMUP 13.169 uM, Well #1 (replicate 1)): 3.041
- Slope (DIFMUP kinetics) ([2]; DIFMUP 13.169 uM, Well #2 (replicate 2)): 2.689
- Slope (DIFMUP kinetics) ([2]; DIFMUP 13.169 uM, Well #3 (replicate 3)): 2.615
- Slope (DIFMUP kinetics), AVERAGE ([2]; DIFMUP 19.753 uM, average of wells #4-#6 (n = 3)): 3.809
- Slope (DIFMUP kinetics) ([2]; DIFMUP 19.753 uM, Well #4 (replicate 1)): 4.168
- Slope (DIFMUP kinetics) ([2]; DIFMUP 19.753 uM, Well #5 (replicate 2)): 3.323
- Slope (DIFMUP kinetics) ([2]; DIFMUP 19.753 uM, Well #6 (replicate 3)): 3.937
- Slope (DIFMUP kinetics), AVERAGE ([2]; DIFMUP 29.630 uM, average of wells #7-#9 (n = 3)): 5.066
- Slope (DIFMUP kinetics) ([2]; DIFMUP 29.630 uM, Well #7 (replicate 1)): 5.203
- Slope (DIFMUP kinetics) ([2]; DIFMUP 29.630 uM, Well #8 (replicate 2)): 4.962
- Slope (DIFMUP kinetics) ([2]; DIFMUP 29.630 uM, Well #9 (replicate 3)): 5.032
- Slope (DIFMUP kinetics), AVERAGE ([2]; DIFMUP 44.444 uM, average of wells #10-#12 (n = 3)): 5.531
- Slope (DIFMUP kinetics) ([2]; DIFMUP 44.444 uM, Well #10 (replicate 1)): 5.910
- Slope (DIFMUP kinetics) ([2]; DIFMUP 44.444 uM, Well #11 (replicate 2)): 4.893
- Slope (DIFMUP kinetics) ([2]; DIFMUP 44.444 uM, Well #12 (replicate 3)): 5.789
- Slope (DIFMUP kinetics), AVERAGE ([2]; DIFMUP 66.667 uM, average of wells #13-#15 (n = 3)): 7.955
- Slope (DIFMUP kinetics) ([2]; DIFMUP 66.667 uM, Well #13 (replicate 1)): 8.503
- Slope (DIFMUP kinetics) ([2]; DIFMUP 66.667 uM, Well #14 (replicate 2)): 7.526
- Slope (DIFMUP kinetics) ([2]; DIFMUP 66.667 uM, Well #15 (replicate 3)): 7.836
- Slope (DIFMUP kinetics), AVERAGE ([2]; DIFMUP 100.000 uM, average of wells #16-#18 (n = 3)): 9.899
- Slope (DIFMUP kinetics) ([2]; DIFMUP 100.000 uM, Well #16 (replicate 1)): 9.510
- Slope (DIFMUP kinetics) ([2]; DIFMUP 100.000 uM, Well #17 (replicate 2)): 9.633
- Slope (DIFMUP kinetics) ([2]; DIFMUP 100.000 uM, Well #18 (replicate 3)): 10.553
- Activity @ 100 uM DIFMUP concentration (E. coli lysates; Undiluted lysate, 2 μl sample to 40 μl reaction mix, 30 data points): 2.33 units / 10 sec
- Activity @ 100 uM DIFMUP concentration (E. coli lysates; lysate 1/100 dilution): -0.38 units / 10 sec
- Activity @ 100 uM DIFMUP concentration (E. coli lysates; lysate 1/1000 dilution): -0.46 units / 10 sec
- Vmax [3]: 63.41 ± 6.17 AU/tick
- Km ([3]; fitted to 30 points [5 min]): 126 µM
- kcat ([3]; fitted to 30 points [5 min]): 33.99 ± 3.31 s⁻¹ and 33.99 s⁻¹
- Vmax [4]: 90.10 ± 17.75 AU/tick
- Km ([4]; fitted to 30 points [5 min]): 409 µM
- kcat ([4]; fitted to 30 points [5 min]): 48.30 ± 9.52 s⁻¹ and 48.30 s⁻¹
- Vmax [5, 8]: 5.10 ± 0.21 AU/tick
- Km [5, 9]: 76.2 ± 3.72 µM
- kcat [5, 9]: 2.73 ± 0.11 s⁻¹
- AVERAGE rate ([5]; DIFMUP 13.169 uM): 0.752 arb. un.
- AVERAGE rate ([5]; DIFMUP 19.753 uM): 1.005 arb. un.
- AVERAGE rate ([5]; DIFMUP 29.630 uM): 1.390 arb. un.
- AVERAGE rate ([5]; DIFMUP 44.444 uM): 1.911 arb. un.
- AVERAGE rate ([5]; DIFMUP 66.667 uM): 2.416 arb. un.
- AVERAGE rate ([5]; DIFMUP 100.000 uM): 2.837 arb. un.
- Vmax ([6]; 12.5 nM enzyme, initial rates adjusted by 1/5 as if 2.5 nM enzyme were used): 1.60 ± 0.04 AU/tick
- kcat ([6]; 12.5 nM enzyme, n = 3 technical repeats, fitted to 30 points [5 min], initial rates adjusted by 1/5): 0.86 ± 0.02 s⁻¹
- kcat relative to wild-type catalytic domain (in words) ([6]; D425A vs wild-type, DIFMUP): reduced by about a magnitude
- AVERAGE rate ([6]; DIFMUP 13.169 uM): 2.032 arb. un.
- AVERAGE rate ([6]; DIFMUP 19.753 uM): 2.945 arb. un.
- AVERAGE rate ([6]; DIFMUP 29.630 uM): 3.933 arb. un.
- AVERAGE rate ([6]; DIFMUP 44.444 uM): 4.201 arb. un.
- AVERAGE rate ([6]; DIFMUP 66.667 uM): 5.009 arb. un.
- AVERAGE rate ([6]; DIFMUP 100.000 uM): 5.979 arb. un.
- Km (SHP2 H426A mut): 16.2 ± 1 µM
- Vmax (SHP2 H426A mut): 60.9 ± 1.1 µM/min
- Km (SHP2 D425A mut): 15.7 ± 0.5 µM
- Vmax (SHP2 D425A mut): 6.1 ± 0.1 µM/min
- Km (Wild-type SHP2): 61.5 ± 8.7 µM

Several values for one entry are separate records, joined by “and”; a condition that tells them apart may be missing. Equal entries are not always repeated. Where two headings read alike, the source gives them in different places.
